Results published in the supplement of paper PMC12067230.
The data scatter; read single values as rough.

Assay: amyloid nucleation score relative to library mode (yeast Sup35 reporter selection) (log enrichment difference); higher = more amyloid nucleation; sequences are the first 22 residues of the Bri2 peptide extended by up to 12 random residues
Details: random library (experiment): 1;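 active = nucleation score significantly above 0 at FDR 0.05; inactive = not significantly above 0 or absent from output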
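Further: [psi-pin-] Saccharomyces cerevisiae expressing SupN fusions, induced by 100 µM Cu2SO4, selected 7 d at 30 °C without adenine and uracil, scored by deep sequencing of output versus input.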

Row | Sequence | amyloid nucleation score
1 | EASNCFAIRHFENKFAVETLICKA | 0.49
2 | EASNCFAIRHFENKFAVETLICPWCDTSMNGSPD | 2.93
3 | EASNCFAIRHFENKFAVETLICWYSALCERQESL | inactive
4 | EASNCFAIRHFENKFAVETLICGTEV | inactive
5 | EASNCFAIRHFENKFAVETLICDCVVISILLGRT | -0.179
6 | EASNCFAIRHFENKFAVETLICKASGERGTKGAW | 2.66
7 | EASNCFAIRHFENKFAVETLICLAMLIGWVSCYR | inactive
8 | EASNCFAIRHFENKFAVETLICMCNESCM | 6.05
9 | EASNCFAIRHFENKFAVETLICKAVMGWVEQRLR | inactive
10 | EASNCFAIRHFENKFAVETLICYLQSYNGLVLLS | inactive
11 | EASNCFAIRHFENKFAVETLICMGVVKCVERVSR | 2.22
12 | EASNCFAIRHFENKFAVETLICRVCVYPVDISSG | inactive
13 | EASNCFAIRHFENKFAVETLICWIVNMALFYVET | 1.18
14 | EASNCFAIRHFENKFAVETLICRCSMKCEWQGCR | 0.384
15 | EASNCFAIRHFENKFAVETLICLFMGRFITRTWE | inactive
16 | EASNCFAIRHFENKFAVETLICLKSIGSWMYLVR | inactive
17 | EASNCFAIRHFENKFAVETLICKRVSGSAIGSAR | inactive
18 | EASNCFAIRHFENKFAVETLICMEYVPRPLIQIQ | -0.111
19 | EASNCFAIRHFENKFAVETLICPVNCTILSGVCR | 5.72
20 | EASNCFAIRHFENKFAVETLICRCTKDSRCWCQR | 2.9
21 | EASNCFAIRHFENKFAVETLICASM | inactive
22 | EASNCFAIRHFENKFAVETLICRTNEHAHTWVRL | 1.78
23 | EASNCFAIRHFENKFAVETLICCASLDWVDDVAL | 8.16
24 | EASNCFAIRHFENKFAVETLICGFLQKPRVIAVA | inactive
25 | EASNCFAIRHFENKFAVETLICTTSEDRKDAVRG | -0.59

Row | Sequence | amyloid nucleation score
26 | EASNCFAIRHFENKFAVETLICVFLTWVYQMVWT | inactive
27 | EASNCFAIRHFENKFAVETLICKLYESLLICVWR | inactive
28 | EASNCFAIRHFENKFAVETLICNVQGM | 3.58
29 | EASNCFAIRHFENKFAVETLICLGG | 4.62
30 | EASNCFAIRHFENKFAVETLICLPYRDTPSVERR | 3.24
31 | EASNCFAIRHFENKFAVETLICVALAFSADVSGA | inactive
32 | EASNCFAIRHFENKFAVETLICDNVNNESEIMIW | inactive
33 | EASNCFAIRHFENKFAVETLICRCRLCSRMRSRE | inactive
34 | EASNCFAIRHFENKFAVETLICMDFGGKTEECRQ | inactive
35 | EASNCFAIRHFENKFAVETLICTSCD | inactive
36 | EASNCFAIRHFENKFAVETLICDGGYA | inactive
37 | EASNCFAIRHFENKFAVETLICQNP | inactive
38 | EASNCFAIRHFENKFAVETLICVIDVGWRLGVRG | 0.804
39 | EASNCFAIRHFENKFAVETLICERLFRYWDWLGE | inactive
40 | EASNCFAIRHFENKFAVETLICGVVAWGKRRSGK | 6.47
41 | EASNCFAIRHFENKFAVETLICDSKALVGERRQW | 3.03
42 | EASNCFAIRHFENKFAVETLICVNQQVFSSGSMV | 1.87
43 | EASNCFAIRHFENKFAVETLICRLKACVNSWCRW | inactive
44 | EASNCFAIRHFENKFAVETLICFYMVSDVGMRQR | inactive
45 | EASNCFAIRHFENKFAVETLICMMMGQSSAFVAS | inactive
46 | EASNCFAIRHFENKFAVETLICFMFHSDTMGRCA | 3.86
47 | EASNCFAIRHFENKFAVETLICELDYWWKYLTLG | inactive
48 | EASNCFAIRHFENKFAVETLICLRHGRTVIDERG | 3.56
49 | EASNCFAIRHFENKFAVETLICGANRPLW | inactive

Same assay, conditions: random library (experiment): 2

Row | Sequence | amyloid nucleation score
50 | EASNCFAIRHFENKFAVETLICVCTIASPDSRWS | 1.09
51 | EASNCFAIRHFENKFAVETLICVGWISLYIMLWP | inactive
52 | EASNCFAIRHFENKFAVETLICVFRDEMKDEVEA | 5.03
53 | EASNCFAIRHFENKFAVETLICVGAPEELQRRRE | 2.4
54 | EASNCFAIRHFENKFAVETLICFTSIISVDSCRS | 1.25
55 | EASNCFAIRHFENKFAVETLICQRMFNPLFRWGA | inactive
56 | EASNCFAIRHFENKFAVETLICVSYTCCDAWVMS | 5.85
57 | EASNCFAIRHFENKFAVETLICWISCRCVCFW | inactive
58 | EASNCFAIRHFENKFAVETLICDYCLFNDRFSCL | inactive
59 | EASNCFAIRHFENKFAVETLICQSDYLELLDSEV | inactive
60 | EASNCFAIRHFENKFAVETLICYPMAFA | inactive
61 | EASNCFAIRHFENKFAVETLICLTRWYHLMLSQG | inactive
62 | EASNCFAIRHFENKFAVETLICGLSWCSKGISCL | inactive
63 | EASNCFAIRHFENKFAVETLICRSMHDNMSIIHR | inactive
64 | EASNCFAIRHFENKFAVETLICTSVFFGAKYRVS | inactive
65 | EASNCFAIRHFENKFAVETLICWELYDCYFIPWG | inactive
66 | EASNCFAIRHFENKFAVETLICLSYSVGFFVDVC | 1.33
67 | EASNCFAIRHFENKFAVETLICNFG | 5.5

Row | Sequence | amyloid nucleation score
68 | EASNCFAIRHFENKFAVETLICRDASGSLQIVEW | inactive
69 | EASNCFAIRHFENKFAVETLICLSCNKLRFARFV | -0.0677
70 | EASNCFAIRHFENKFAVETLICAAEWSMCINMKN | -0.631
71 | EASNCFAIRHFENKFAVETLICATSIYLYMFILV | inactive
72 | EASNCFAIRHFENKFAVETLICEARKDCLITAVR | inactive
73 | EASNCFAIRHFENKFAVETLICLCYIQGVSIHLR | inactive
74 | EASNCFAIRHFENKFAVETLICDRDSFCWAEFFK | 4.83
75 | EASNCFAIRHFENKFAVETLICISGHCTGENSYD | 6.05
76 | EASNCFAIRHFENKFAVETLICYTTIYLICLVES | inactive
77 | EASNCFAIRHFENKFAVETLICYGVFSR | 6.27
78 | EASNCFAIRHFENKFAVETLICALLLAYRTGGMA | inactive
79 | EASNCFAIRHFENKFAVETLICTPGLRLSTGYMR | -0.3
80 | EASNCFAIRHFENKFAVETLICCCLSRFMHRTAV | inactive
81 | EASNCFAIRHFENKFAVETLICWCYPIIVYMSPQ | inactive
82 | EASNCFAIRHFENKFAVETLICANFYSNSYVCSG | 8.96
83 | EASNCFAIRHFENKFAVETLICIANRRYCDGNAR | 0.607
84 | EASNCFAIRHFENKFAVETLICVCRTL | inactive

Same assay, conditions: random library (experiment): 3

Row | Sequence | amyloid nucleation score
85 | EASNCFAIRHFENKFAVETLICRYVLSCVNSVPS | inactive
86 | EASNCFAIRHFENKFAVETLICCLNRDSWGTPLR | 6.29
87 | EASNCFAIRHFENKFAVETLICMGWQRWF | 5.78
88 | EASNCFAIRHFENKFAVETLICGALGVGWGRMRG | 7.03
89 | EASNCFAIRHFENKFAVETLICMGGDWLSGCRRQ | 7.54
90 | EASNCFAIRHFENKFAVETLICLSYCLCPRVARV | 6.69
91 | EASNCFAIRHFENKFAVETLICFTRTPLLRFYW | inactive
92 | EASNCFAIRHFENKFAVETLICEKGELRWLRRRA | 2.42
93 | EASNCFAIRHFENKFAVETLICNITL | 8.16
94 | EASNCFAIRHFENKFAVETLICRTNVFAMLSYTD | inactive
95 | EASNCFAIRHFENKFAVETLICFTMFVYLGVHGC | inactive
96 | EASNCFAIRHFENKFAVETLICGYASRYRHSNVC | inactive
97 | EASNCFAIRHFENKFAVETLICGLELYVGHTYFG | inactive
98 | EASNCFAIRHFENKFAVETLICYFFPCSRMVCIR | inactive
99 | EASNCFAIRHFENKFAVETLICVMFTLLYALSCR | inactive
100 | EASNCFAIRHFENKFAVETLICGPWESGVVDDGE | inactive
101 | EASNCFAIRHFENKFAVETLICMVQFSVDGLSWR | inactive
102 | EASNCFAIRHFENKFAVETLICTRTI | inactive

Row | Sequence | amyloid nucleation score
103 | EASNCFAIRHFENKFAVETLICNSVEKTVGNGRE | inactive
104 | EASNCFAIRHFENKFAVETLICGWWASATLWCPQ | 0.0274
105 | EASNCFAIRHFENKFAVETLICLSTGVLGSWGLR | inactive
106 | EASNCFAIRHFENKFAVETLICVCPERVVLHPIG | 5.09
107 | EASNCFAIRHFENKFAVETLICCAGLPARGNGPW | 8.27
108 | EASNCFAIRHFENKFAVETLICDSPVCMCLGFRY | 5.73
109 | EASNCFAIRHFENKFAVETLICRMMDVRWCARVR | inactive
110 | EASNCFAIRHFENKFAVETLICHCTLMNLSYVKV | 0.0461
111 | EASNCFAIRHFENKFAVETLICLGIYYIVSSYCR | inactive
112 | EASNCFAIRHFENKFAVETLICGYAVTYEVGELR | inactive
113 | EASNCFAIRHFENKFAVETLICHVKVMLSQSYVR | inactive
114 | EASNCFAIRHFENKFAVETLICMCMRRPILASFL | inactive
115 | EASNCFAIRHFENKFAVETLICTGLGLLRGEMEG | inactive
116 | EASNCFAIRHFENKFAVETLICAPLWSHPGSCTR | 6.95
117 | EASNCFAIRHFENKFAVETLICALHRSCDTKWSC | inactive
118 | EASNCFAIRHFENKFAVETLICHKC | 0.632
119 | EASNCFAIRHFENKFAVETLICQTTCYRLLISMP | 0.0556
